Several values for one entry are separate records, joined by “and”; a condition that tells them apart may be missing. Identical values can stand only once. About 1,200 (2.5%) of roughly 48,000 compounds were called active. Not shown: some 2% with an inconclusive outcome.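 How the source made its calls: active means activation of at least 60% and not above a set upper limit (about 1 call in 100 departs from these limits); inconclusive means activation of 40% to 60%, or above that upper limit; inactive means activation under 40%.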 The list shows a part of the results.

Sequence of UniProt O75388 (O75388 whole entry, looked up): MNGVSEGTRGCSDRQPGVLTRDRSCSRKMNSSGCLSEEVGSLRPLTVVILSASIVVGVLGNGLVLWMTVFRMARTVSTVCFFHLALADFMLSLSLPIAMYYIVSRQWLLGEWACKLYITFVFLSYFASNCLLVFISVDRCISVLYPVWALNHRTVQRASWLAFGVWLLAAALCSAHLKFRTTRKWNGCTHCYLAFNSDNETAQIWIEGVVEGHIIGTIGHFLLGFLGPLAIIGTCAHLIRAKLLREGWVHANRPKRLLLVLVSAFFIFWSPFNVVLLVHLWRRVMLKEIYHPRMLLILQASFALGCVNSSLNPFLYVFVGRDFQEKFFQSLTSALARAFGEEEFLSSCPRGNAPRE

In this assay the target is Probable G-protein coupled receptor 32 (Homo sapiens) (UniProt O75388). Description: qHTS for Agonists of Human Resolvin D1 Receptor DRV1. Further: 0% is about no effect. The conditions noted are these: CHO-K1 GPR32 beta-arrestin PathHunter luminescence, 90 min; at 76.9 µM; stronger effect = higher value; zero percent set by DMSO-only wells. In a few lines:
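Engineered CHO-K1 line co-expressing GPR32-ProLink and EA-beta-arrestin. Compound treatment lasted 90 min at 37 °C. Luminescence was recorded after 1 h with substrate at ambient temperature, relative to DMSO basal wells.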
For orientation: qHTS replaces the single test concentration by a dilution series.
For the molecule `Cc1ccc(-n2c(=O)c3cccnc3n2CC(=O)Nc2ccc(Br)cc2)cc1C`, the activation was inactive: -3.38%. As for `CC(Oc1ccc(F)cc1)C(=O)N1CCC(c2nc3ccccc3s2)CC1` (stereo not drawn), the activation is active: 67.2%.

Turning to `Cc1cc(C)cc(NC(=O)C(Cc2ccccc2)NS(=O)(=O)c2ccc3c(c2)c(=O)n(C)c(=O)n3C)c1` (stereo not drawn), the activation is inactive: 3.11%. As for `Cn1ncc2c(N3CCN(c4cccc(Cl)c4)CC3)ncnc21`, the activation is inactive: 2.45%. Turning to `CCOC(=O)N1CCc2c(sc(NCc3sccc3C)c2C(=O)Nc2ccc(OC)cc2OC)C1`, the activation is active: 117%.

As for `COc1ccc(C)cc1NC(=O)CCS(=O)(=O)c1cc2c3c(c1)CCN3C(=O)CC2`, the activation was inactive: -5.47%. Turning to `COc1ccccc1N1CCN(C(=O)c2nc(SC)ncc2Cl)CC1`, the activation was inactive: -51.6%. As for `CCOc1ccc(Oc2nc(NCC(C)C)nc(N3CCOCC3)n2)nn1`, the activation was inactive: -12.1%. As for `COc1ccc(/C=C/C(=O)Nc2ccc3nc4c(c(Nc5ccccc5OC)c3c2)CCCC4)cc1`, the activation is inactive: -22.7%.

For `O=C(c1ccc2c(c1)N(Cc1cccc(F)c1)C(=O)c1ccccc1S2)N1CCOCC1`, the activation was inactive: -35.6%. The same measure for `Cc1ccc(S(=O)(=O)c2nnn3c2nc(N2CCN(c4ccccc4F)CC2)c2cc(Cl)ccc23)cc1C`: inactive: -9.42%; for `Cc1ccc(S(=O)(=O)c2nnn3c2nc(N2CCCC2)c2sccc23)cc1C`: inactive: -2.92%.

Regarding `CC(=O)N1c2c(cc(Br)cc2S(=O)(=O)N2CCN(c3cc(C)ccc3C)CC2)CC1C` (stereo not drawn), the activation is inactive: -3.39%. Regarding `Cc1ccccc1CN1C(=O)c2ccccc2S(=O)c2ccc(C(=O)NC3CCC(C)CC3)cc21` (stereo not drawn), the activation was inactive: -19.5%. With `CCc1ccc(NC(=O)c2sc3nc(C)c(Cl)c(C)c3c2NC(=O)c2ccccc2OC)cc1`, the activation is inactive: -0.804%.

Turning to `CC1=C(C#N)C(NC(=O)c2ccccc2Cl)(C(F)(F)F)C(=O)N1` (stereo not drawn), the activation was inactive: -10.7%.

Turning to `COc1ccc(OC)c(NC(=O)C2=C(C)C(=O)OC23CCCCCC3)c1`, the activation was inactive: 0.837%. Consider `CCN(CC)CCCNC(=O)c1cn(C)c2ccc(S(=O)(=O)N(C)C3CCCCC3)cc2c1=O`, for which the activation was inactive: 2.7%. For `CCN(CC)CCCNC(=O)c1cnc(SC)nc1-c1ccccc1`, the activation is inactive: -0.378%. `Cc1ccc(CN(C(=O)COc2ccc([N+](=O)[O-])cc2)c2ccccn2)cc1`: the activation is inactive: -3.14%.

As to `O=C(COc1ccc(Cl)cc1)Nc1nnc(S(=O)(=O)N2CCc3ccccc32)s1`, the activation is inactive: 20.2%. Regarding `COc1cccc(-c2ncnn2-c2sc3c(c2C#N)CCCCC3)c1OC`, the activation is inactive: 18.6%. Consider `CCN(C(=O)CSc1nc2ncccc2[nH]1)c1ccc(C(C)C)cc1`, for which the activation was inactive: 7.73%.

With `Cc1ccc2c(=O)cc(C(=O)Nc3nc4ccc(Cl)cc4s3)oc2c1C`, the activation is inactive: 3.7%. `CCOCCc1nn2c(=O)cc(COC(=O)CNC(=O)c3cccc(C)c3)nc2s1`: the activation is inactive: 26.7%. The same measure for `Cc1nn(CC(=O)N2CCC(C)CC2)c(=O)c2cc3sccc3n12`: inactive: 3.86%. Then `CCOc1ccc(CCNC(=O)c2cn(C)c3ccc(S(=O)(=O)N4CCCCCC4)cc3c2=O)cc1OCC`, with inactive: -9.09%; and `COc1ccc(CNc2nc3c(-c4cccc(C)c4)nnn3c3ccccc23)cc1`, with inactive: -4.27%; and `CCOc1ccc(NC(=O)c2cnc(N3CCCC3)nc2C)cc1`, with inactive: -2.59%.

`CC(C)c1ccc(NC(=O)Cn2cc(S(=O)(=O)N3CCN(c4ccccc4F)CC3)c3ccccc3c2=O)cc1`: the activation is inactive: -2.12%.

Turning to `CCOC(=O)c1c(C)[nH]c(C)c1S(=O)(=O)N(C)CC(=O)N1CCN(c2ccccc2)CC1`, the activation was inactive: 0%. `COc1ccccc1NC(=O)c1c(NCc2ccc(OC)c(OC)c2OC)sc2c1CCC2`: the activation was inactive: -16.4%. Take `Cc1cc2c(cc1NS(=O)(=O)c1ccc(F)cc1)n(C)c(=O)c(=O)n2C`: the activation was inactive: -1.28%.

`CCN1CCOC(=O)C1CC(=O)Nc1cc(C)ccc1OC` (stereo not drawn): the activation was inactive: -52.5%. For `Cc1cccc(NC(=O)c2ccc3snnc3c2)c1`, the activation was inactive: -10.7%. Take `Cc1ccc2nc(-c3ccc(Cl)c(NC(=O)COc4cccc(C)c4C)c3)oc2c1`: the activation is inactive: -2.07%. As to `CCOC(=O)c1sc(NC(=O)/C=C/c2ccc(C(C)C)cc2)c(C(=O)OCC)c1C`, the activation was inactive: -3.62%. In the case of `CCCc1cc(=O)[nH]c2nnc(SC(C)CC)n12` (stereo not drawn), the activation is inactive: 15%. Then `CCN(CC)c1ccc(NC(=O)CCS(=O)(=O)c2cc3c(cc2Cl)NC(=O)CO3)c(C)c1`, with inactive: 5.11%; and `Cc1ccc2nc(N3CCN(c4cccc(C(F)(F)F)c4)CC3)c3nnnn3c2c1`, with inactive: 0.61%; and `CCc1cccc(C)c1NS(=O)(=O)c1cc2[nH]c(=O)c(=O)[nH]c2cc1C`, with inactive: -3.52%. As for `CC(C)COc1ccc(C(=O)NCC2(N3CCN(C)CC3)CCCCC2)cc1`, the activation is inactive: -22.5%. Turning to `CCc1ccc2ncc3c(-c4ccccc4)nn(-c4ccccc4)c3c2c1`, the activation was inactive: -7.12%.

`COCCNC(=O)Cn1nc(C)c2c(C)n(-c3ccc(C)cc3)nc2c1=O`: the activation is inactive: -13.9%. With `CCc1ccc(NCc2cc3cc4c(cc3n(CC(=O)Nc3cccc(OC)c3)c2=O)OCO4)cc1`, the activation was inactive: -43.8%. For the molecule `CCc1nnc(SCC(=O)Nc2ccccc2Cl)nc1CC`, the activation was inactive: -16.7%. As for `Cc1ccc(C)c(NC(=O)CC2NCCNC2=O)c1` (stereo not drawn), the activation is inactive: 2.08%. Regarding `Cc1cc(NS(=O)(=O)c2ccc(NC(=O)c3ccccc3C)cc2)nc(C)n1`, the activation is inactive: -3.23%. Take `COc1cccc(NC(=O)CSc2nnc3scc(-c4ccc(Cl)cc4)n23)c1`: the activation is inactive: -10.8%. Take `CC[N+](C)(C)c1cccc(O)c1`: the activation is inactive: -3.08% and inactive: 4.63%.

Regarding `COc1ccc(N(C(=O)c2ccc(OC)c(OC)c2)S(=O)(=O)c2ccc(Cl)cc2)cc1`, the activation was inactive: -0.473%. On to `Cc1ccc(NC(=O)C2CCCN(c3nnc(-n4c(C)ccc4C)s3)C2)c(C)c1` (stereo not drawn), for which the activation is inactive: -27.7%. Regarding `N#Cc1ccccc1Cn1c(=O)n(CCCC(=O)NCc2ccc3c(c2)OCO3)c(=O)c2sccc21`, the activation was inactive: -16.9%. For `Cc1csc2nc(COC(=O)c3cccc(NC(=O)COc4ccc(Cl)cc4)c3)cc(=O)n12`, the activation was inactive: -6.15%. On to `O=C(CCCCn1c(=O)c2ccccc2n(Cc2ccccc2Cl)c1=O)NCCc1ccccc1`, for which the activation is inactive: -11.4%. On to `Cc1ccn2c(=O)cc(COc3ccc(NC(=O)COc4ccc(Cl)cc4)cc3)nc2c1`, for which the activation is inactive: -2.87%. The same measure for `CCCN(CCC)C(=O)Cn1c(=O)n(-c2cccc(OC)c2)c(=O)c2c3c(sc21)CCCC3`: inactive: -2.93%; for `CCCC(C(=O)NCc1cccc(Cl)c1)N1Cc2ccccc2C1=O` (stereo not drawn): inactive: -4.36%. In the case of `O=C(/C=C/c1ccccc1)N1CCN(Cc2cc(=O)n3nc(-c4ccccc4F)sc3n2)CC1`, the activation was inactive: -9.12%. The same measure for `CC(C)(C)C(=O)Cn1c(=O)n(-c2ccc(Cl)cc2)c(=O)c2c3c(sc21)CCCC3`: inactive: -23.6%. For the molecule `COc1cccc(CNC(=O)C(=O)NCC(c2ccco2)S(=O)(=O)c2cccs2)c1` (stereo not drawn), the activation was inactive: -16.7%. In the case of `CCOc1ccccc1CNC(=O)C1CCN(C(=O)N2CC(CC)Oc3ccc(C)cc32)CC1` (stereo not drawn), the activation is inactive: -12.4%. As to `CC(=O)N1CCc2cc(CNC(=O)Cc3ccc(F)cc3)ccc21`, the activation is inactive: -7.8%.

`O=C(Cn1c(SCCOc2ccccc2)nc2ccccc21)N1CCOCC1`: the activation was inactive: -16%. Consider `C[C@@H](NCCCc1cccc(C(F)(F)F)c1)c1cccc2ccccc12`, for which the activation was inactive: 15.3%. As for `COc1ccc(N2CC(NC(=O)/C=C\c3ccccc3)CC2=O)cc1` (stereo not drawn), the activation is inactive: -13.6%.

On to `Cc1cc(OCCn2cc(C(=O)c3cccs3)c3ccccc32)ccc1Cl`, for which the activation is inactive: -23%. `Cc1c(C(=O)OCCOc2ccccc2)[nH]c2c1C(=O)CC(c1ccccc1)C2` (stereo not drawn): the activation was inactive: 13.2%. As to `O=C(Nc1ccc2nc(SCC(=O)N3CCOCC3)sc2c1)c1cccc(Cl)c1`, the activation is inactive: 2.25%. Consider `COc1ccc(NC(=O)Cn2c(=O)n(CCC(=O)NCc3ccccc3OC)c(=O)c3ccccc32)cc1Cl`, for which the activation is inactive: 4.72%. As for `Cc1ccc(Cn2ccn(Cc3ccccc3F)c(=O)c2=O)cc1`, the activation is inactive: -19.9%. Then `COc1ccc(Cl)cc1N(C)C(=O)c1ccc2c(=O)n3c(nc2c1)CCCCC3`, with inactive: -7.13%; and `Cc1cccc(N2CCN(CCCNc3ncnc4onc(-c5ccc(Cl)cc5)c34)CC2C)c1` (stereo not drawn), with inactive: -12.1%.

In the case of `CSc1ccc(CCNC(=O)c2ccc(-c3nc(COc4ccccc4)c(C)o3)cc2)cc1`, the activation was inactive: -9.91%. Regarding `Cc1c(Cl)cccc1NC(=O)COCc1cc(-c2ccc3c(c2)OCO3)on1`, the activation is inactive: -14.5%. Then `COc1cccc(CNC(=O)CCc2c(C)nc3c(c(C)nn3-c3ccc(C)c(C)c3)c2C)c1`, with inactive: -0.975%; and `Cc1nc2c(-c3ccccc3)c(C)nn2c(C)c1CCC(=O)N1CCN(c2ccc(F)cc2)CC1`, with inactive: -21.7%; and `COc1ccc(CCNC(=O)CCn2c(=O)c3ccccc3n(Cc3cc(C)ccc3C)c2=O)cc1OC`, with inactive: -6.9%. Turning to `COC(=O)Cn1nc(C)c2c(C)n(-c3ccccc3)nc2c1=O`, the activation was inactive: -10.6%. As for `CCCN1C(=O)c2[nH]nc(-c3ccccc3O)c2C1c1ccc(OCc2ccccc2)c(OC)c1` (stereo not drawn), the activation was inactive: 9.58%. As for `C[C@@H](O)[C@H]1C(=O)N2C(C(=O)O)=C([C@H]3CCCO3)S[C@H]12`, the activation is inactive: -3.78%. Then `Cc1ccc(C(=O)Nc2cccc(OCc3cc(=O)n4c5c(sc4n3)CCCC5)c2)cc1`, with inactive: 14.3%; and `COc1cc(C(=O)N2CCN(c3ccc(Nc4ccc(C)cc4)nn3)CC2)cc(OC)c1OC`, with inactive: -5.58%.
